In PubChem BioAssay AID588855 (National Center for Advancing Translational Sciences (NCATS), 2011):
Among all 410,000 compounds or so, about 5,000 (1.2%) were called active. The shares of active, inactive and inconclusive entries below differ from those in the screen. Calls come from the whole dose curve; as a rule, active = well fitted inhibition curve with a large enough effect; inconclusive = small, poorly fitted or top-dose-only effect; inactive = no such curve, though single readings can be large or run the other way. Potencies of inconclusive entries are doubtful fits and often do not repeat.

Assay: qHTS for Inhibitors of TGF-b; note: nearly all actives have a fitted effect of over 65% in size
Conditions: HepG2 CAGA-GFP TGF-b/SMAD3 reporter, GFP fluorescence, 18 h, TGF-beta stimulated, 500 pg/mL final; series mostly up to 46.1 µM; activity, negative = inhibition: at the top concentration
Method in brief: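 Inhibition of TGF-beta-driven CAGA-GFP reporter expression in HEPG2 cells is measured by cellular GFP fluorescence after 18 h stimulation with 500 pg/mL recombinant TGF-beta in 1% FBS medium at 37 degrees C.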
% is set by controls: 0 for no effect and ±100 for the full control effect; potency is the fitted concentration of half-maximal effect; tags give direction and shape of the fitted curve.

Row | SMILES | activity, negative = inhibition | Potency
1 | O=C(Cc1ccccc1)NCC(=O)N1CCN(Cc2cccc(Cl)c2)CC1 | inactive: 6% | 
2 | CCN(CC(=O)Nc1ccccc1C(F)(F)F)C(=O)c1cc(S(=O)(=O)N2CCCCCC2)ccc1OC |  | inconclusive: 15.8 µM [inhibitor, single point]
3 | c1ccc(-c2nc3nonc3nc2-c2ccccc2)cc1 |  | active: 8.91 µM
4 | O=C(Nc1ccc(Br)cc1)c1cc(-c2ccncc2)nc2ccccc12 |  | inconclusive: 17.8 µM [inhibitor, single point]
5 | Cc1cc(C)cc(-n2c(C)nc3cc(C(=O)NCc4ccc(F)cc4)ccc32)c1 |  | inconclusive: 25.1 µM [inhibitor, single point]
6 | O=C(NCc1ccc(F)cc1)c1ccc(Cn2c(SCc3ccc(F)cc3)nc3cccnc32)cc1 |  | inconclusive: 25.1 µM [inhibitor, single point]
7 | Cc1nn(-c2ccccc2)c(C)c1C(=O)OC(C)C(=O)NC1CCCCC1 (centres undefined) | inactive: 7.43% | 
8 | C=CC[C@@H](CC(=O)N[C@@H](CO)Cc1ccccc1)C(=O)N[C@H](COC(=O)[C@@H](CC=C)CC(=O)OC(C)(C)C)Cc1ccccc1 |  | inconclusive: 7.94 µM [inhibitor, partial curve, poor fit]
9 | COc1cc(SC)ccc1C(=O)OCC(=O)N1CCN(C(C)=O)CC1 | inactive: -20.9% | 
10 | COc1ccc(Cl)cc1NC(=O)CN(C)C(=O)c1ccc(COc2ccccc2)cc1 | inactive: -22.4% | 
11 | COc1ccc(Nc2cnn(-c3nc4ccccc4s3)c(=O)c2Cl)cc1 |  | inconclusive: 15.8 µM [inhibitor, single point]
12 | COc1ccc(N/N=C(\C#N)C(=N)SCc2ccccc2)cc1 |  | inconclusive: 35.5 µM [inhibitor, single point]
13 | Cc1ccc(S(=O)(=O)N2CCC(c3nc(-c4cccs4)nc4ccccc34)CC2)cc1 | inactive: 24.8% | 
14 | CC(C)Cn1c(=O)c2ccccc2n2c(CCC(=O)NCc3ccc(Cl)cc3)nnc12 | inactive: 0.999% | 
15 | CCN(CCCNC(=O)c1cc2cc3ccc(OC)cc3nc2s1)c1cccc(C)c1 |  | active: 12.6 µM
16 | COc1cc2c(cc1OC)/C(=C/C(=O)N1CCOCC1)NC(C)(C)C2 |  | inconclusive: 20 µM [inhibitor, single point]
17 | Cc1ccc(S(=O)(=O)Nc2cccc3cccnc23)cc1 |  | active: 3.98 µM
18 | CCCN1C(=O)c2[nH]nc(-c3cccc(OC)c3)c2C1c1ccccn1 (centres undefined) |  | inconclusive: 0.631 µM [inhibitor, full curve, poor fit]
19 | C[C@H](C(=O)OCO/N=[N+](\[O-])N1CCCC1)c1cccc2ccccc12 |  | inconclusive: 6.31 µM [inhibitor, single point]
20 | NS(=O)(=O)c1ccc(NC(=O)COC(=O)c2c3c(nc4ccccc24)/C(=C\c2ccc4c(c2)OCO4)CCC3)cc1 |  | inconclusive: 35.5 µM [inhibitor, single point]
21 | O=C(CCS(=O)(=O)c1cc(Br)cc2c1N(C(=O)C1CC1)CC2)Nc1ccc(F)cc1 | inactive: -14.5% | 
22 | CCc1ccc(C2=NN(CCC(=O)NC(C)CCc3ccccc3)C(=O)CC2)cc1 (centres undefined) |  | inconclusive: 11.2 µM [inhibitor, partial curve, poor fit]
23 | COc1cccc(NC(CNS(=O)(=O)c2ccc(Cl)cc2)c2ccccc2)c1 (centres undefined) |  | active: 11.2 µM

Row | SMILES | activity, negative = inhibition | Potency
24 | CC(C)c1ccc2c(c1)NC(c1ccncc1)=NC(c1cccs1)=N2 |  | inconclusive: 11.2 µM [inhibitor, partial curve, poor fit]
25 | CCOc1ccc(-c2cn3ccccc3n2)cc1[N+](=O)[O-] |  | inconclusive: 35.5 µM [inhibitor, single point]
26 | CCCCOc1ccc(-c2nnn(CC(=O)NCCc3c[nH]c4ccccc34)n2)cc1 |  | inconclusive: 35.5 µM [inhibitor, single point]
27 | COc1cccc2c1C(=N)c1c(O)c3c(c(O)c1C2=O)CC(O)(C(C)=O)CC3OC1CC(N)C(O)C(C)O1 (centres undefined) |  | active: 7.08 µM
28 | COc1ccc(-c2nc3ccc(C(=O)NCCCN4CCOCC4)cc3nc2-c2ccc(OC)cc2)cc1 |  | inconclusive: 35.5 µM [inhibitor, single point]
29 | COc1ccccc1/C=C/CN1CCN(Cc2ccc(F)cc2)C(CCO)C1 (centres undefined) |  | inconclusive: 8.91 µM [inhibitor, partial curve, poor fit]
30 | C/C(=N/Nc1ccc([N+](=O)[O-])cc1)c1c[nH]c2ccccc12 | inactive: -3.08% | 
31 | Cc1cc(C(=O)OC(C)C(=O)Nc2nc(-c3ccccc3)cs2)c(C)o1 (centres undefined) |  | inconclusive: 35.5 µM [inhibitor, single point]
32 | Clc1ccccc1-c1nnc(-c2ccccc2CNc2ccc(Br)cc2)o1 | inactive: -34% | 
33 | O=[N+]([O-])/C=C\c1ccc(N2CCCC2)c(F)c1 |  | active: 11.2 µM
34 | O=C(NC(=S)Nc1cc([N+](=O)[O-])ccc1O)c1ccc2c(c1)OCO2 |  | inconclusive: 35.5 µM [inhibitor, single point]
35 | O=C(Cn1ccc([N+](=O)[O-])n1)NCc1ccco1 |  | inconclusive: 1.41 µM [inhibitor, partial curve, poor fit]
36 | O=C(Nc1ccc2c(c1)nc1n2CCSC1)c1ccccc1 |  | inconclusive: 22.4 µM [inhibitor, single point]
37 | COCCN1CCN(C(=O)c2cc(COc3ccc(F)cc3Cl)on2)CC1 |  | inconclusive: 7.94 µM [inhibitor, partial curve, poor fit]
38 | Cn1nc(-c2ccc(Cl)cc2)nc2c(=O)n(C)c(=O)nc1-2 |  | active: 1 µM
39 | COc1ccc(C(=O)Cn2c(C(C)=O)nc3ccccc32)cc1 |  | inconclusive: 15.8 µM [inhibitor, single point]
40 | CCOc1ccc(C(=O)COC(=O)C2CCN(c3ccc(C(F)(F)F)cn3)CC2)cc1 |  | inconclusive: 3.55 µM [inhibitor, partial curve, poor fit]
41 | O=C(N/N=C/c1ccc([N+](=O)[O-])o1)c1ccc(O)cc1 |  | inconclusive: 22.4 µM [inhibitor, single point]
42 | CCc1ccc([C@@H]2CC=C(C(=O)O)[C@H](c3cccc(Cl)c3)N2S(=O)(=O)c2ccc(C)cc2)cc1 |  | inconclusive: 20 µM [inhibitor, single point]
43 | CCC(=O)c1ccc(OCC(=O)Nc2cccc(S(=O)(=O)N(C)c3ccccc3)c2)cc1 |  | inconclusive: 22.4 µM [inhibitor, single point]
44 | COc1cc(Cl)c(NS(=O)(=O)c2ccc(-c3cnc(C4CC4)o3)cc2)c(OC)c1 |  | inconclusive: 8.91 µM [inhibitor, partial curve, poor fit]
45 | CCC(=O)NNC(=S)NC(=O)c1ccc(C)cc1 |  | inconclusive: 0.199 µM [inhibitor, full curve, poor fit]
46 | Cc1ccc(C)c(N2CCN(C(=O)c3cccn4c(=O)c5sccc5nc34)CC2)c1 | inactive: -20.4% | 

Row | SMILES | activity, negative = inhibition | Potency
47 | O=C(Nc1ccc(F)cc1F)Nc1csc2ccccc12 |  | inconclusive: 28.2 µM [inhibitor, single point]
48 | COc1ccc(Nc2cc(C)c3ccccc3n2)cc1 |  | inconclusive: 14.1 µM [inhibitor, single point]
49 | COc1ccc(-c2nc3ccc(Br)cn3c2Cc2ccccc2)cc1OC |  | inconclusive: 12.6 µM [inhibitor, partial curve, poor fit]
50 | O=C(Nc1cc(F)ccc1F)C1CCCO1 (centres undefined) |  | inconclusive: 1.58 µM [inhibitor, partial curve, poor fit]
51 | O=S(=O)(c1ccc2nc(NCc3ccccc3Cl)ccc2c1)N1CCCCC1 |  | inconclusive: 35.5 µM [inhibitor, single point]
52 | CCC(=O)N1CCN(c2ccc(NC(=O)c3ccco3)cc2Cl)CC1 | inactive: 4.14% | 
53 | Oc1cccc2cc(Nc3ccccc3)cnc12 |  | active: 3.55 µM
54 | CCCCCCCCNC(=O)c1cccnc1SCC(=O)Nc1ccc(OC)cc1OC | inactive: 2.23% | 
55 | N#C/C(=C\c1ccccc1)C(=O)Nc1cccnc1 | inactive: 0.175% | 
56 | Cc1ccc(C)c(OCC(O)CN2CCc3ccccc3C2)c1C (centres undefined) |  | inconclusive: 14.1 µM [inhibitor, partial curve, poor fit]
57 | Cc1ccc(NC(=O)CCn2cccc2)cc1Cl | inactive: -15.9% | 
58 | COc1ccc2[nH]cc(CCNS(=O)(=O)c3ccc(C)cc3)c2c1 | inactive: -4.79% | 
59 | Cc1ccc(Cn2c(=N)n(CC(O)c3ccco3)c3ccccc32)cc1 (centres undefined) |  | inconclusive: 14.1 µM [inhibitor, partial curve, poor fit]
60 | CC(C)(C)c1ccc(/C=C2/SC(N3CCCC3)=NC2=O)cc1 |  | inconclusive: 14.1 µM [inhibitor, single point]
61 | CC(C)(CO)CNc1ccn2nccc2n1 | inactive: -21.2% | 
62 | O=C(Cn1ncc2c3ccccc3n(Cc3cccc(Cl)c3)c2c1=O)NCc1cccs1 | inactive: 9.21% | 
63 | C/C(=N\NC(=O)c1cc2ccccc2cc1O)c1ccc2c(c1)OCO2 |  | inconclusive: 35.5 µM [inhibitor, single point]
64 | Cc1ccc(OCCC(=O)N(CCC(C)C)c2c(N)n(Cc3ccccc3)c(=O)[nH]c2=O)cc1 | inactive: -9.05% | 
65 | Cc1cc(N/N=C/c2ccc(Cl)cc2Cl)nc(NCc2ccccc2)n1 | inactive: -8.61% | 
66 | COc1ccc(-c2nn(-c3ccccc3)cc2C2CC(c3cccs3)=NN2C(=O)CCC(=O)O)cc1 (centres undefined) |  | inconclusive: 35.5 µM [inhibitor, single point]
67 | COc1ccc(/C=N/NC(=O)CCn2c3ccccc3c3ccccc32)cc1OC | inactive: 0.123% | 
68 | CCN(CC)S(=O)(=O)c1cc(NC(=O)CSCc2c(C)noc2C)ccc1C | inactive: -2.1% | 
69 | CCN(Cc1ccccc1)S(=O)(=O)c1ccc(C(=O)N(CCCN(C)C)c2nc3cc(C)cc(C)c3s2)cc1 |  | inconclusive: 28.2 µM [inhibitor, single point]
